According to PubChem BioAssay AID493208 (National Center for Advancing Translational Sciences (NCATS), 2011):
In all, about 44,000 compounds went through this assay and about 340 (0.77%) were called active. Roughly 5% stayed inconclusive and do not appear here. Calls come from the whole dose curve; as a rule, active = well fitted inhibition curve with a large enough effect; inconclusive = small, poorly fitted or top-dose-only effect; inactive = flat fitted curve, though single readings scatter. The list shows a part of the results.

Assay: Acumen qHTS Assay for Inhibitors of the mTORC1 Signaling Pathway in MEF (Tsc2-/-, p53-/-) Cells: Sytravon; note: nearly all actives have a fitted effect of over 50% in size
Settings: phospho-rpS6 immunofluorescence/PI, 24 h; series mostly up to 38.3 µM; activity change, negative = inhibition: at the top concentration
Text: NIH Molecular Libraries Probe Production Centers Network [MLPCN] NIH Chemical Genomics Center [NCGC] MLPCN Grant: NS059428-01 Assay Submitter (PI): Blenis, John; Hoffman, Greg; Harvard University NCGC Assay Overview: The mammalian target of rapamycin (mTOR) is an intracellular serine/threonine kinase Aberrant regulation of mTOR signaling plays a causative role in a number of human diseases, including cancer, benign tumors such as lymphangioleiomyomatosis (LAM) and Tuberous Sclerosis Complex (TSC), and metabolic diseases such as diabetes and obesity. This project aims to identify inhibitors of ribosomal protein S6 (rpS6) phosphorylation. The phosphorylation of rpS6 is a key event downstream of mTOR activation. The assay uses a phospho-specific antibody of phospho-rpS6 to detect inhibitors of mTOR activation. Mutations in the Tsc1 and Tsc2 genes are the underlying genetic lesions responsible for TSC, causing constitutive activation of the mTORC1 pathway and leading to profound effects on cell metabolism. Aberrant metabolism in cancer has recently received significant attention as a target to develop therapeutic agents in the treatment of cancer.1 As Tsc2-/- cells have lost the ability to respond to energy and growth factor deprivation, these cells are unable to properly down regulate cellular biosynthetic processes in response to metabolic stress, and are thus extremely sensitive to glucose deprivation-induced death.2 A central goal of this project is to explore the unique cell survival and metabolic properties of cells with Tsc1 or Tsc2 by screening for compounds that selectively target the Tsc2-/- MEFs by screening both Tsc2-/- and WT MEF cell lines. We hope to better understand these aspects of TSC physiology in order to exploit them for therapeutic benefit.
NCGC Acumen Assay Protocol Summary: For quantitative high throughput analysis of mTORC1 signaling, we developed a cell-based assay for immuno-fluorescence based detection of rpS6 phosphorylation on the Acumen Explorer that will be used a platform for the primary small molecule screen. Mouse embryonic fibroblasts (MEFs) are cultured in 1536-well plates using DMEM + 10% FBS. Twenty-four hrs after plating, test compounds (solubilized in DMSO) are delivered and incubated with the cells for 24 hrs at 37 degree Celsius. Following the incubation, media with compound is aspirated and the cells are fixed in 4% paraformaldehyde (PFA) containing PBS + 0.2% TX-100. Next, PFA is aspirated, cells are washed two times with PBS plus 0.2% TX-100 and the cells are blocked for 1 hr at room temperature (blocking buffer: LiCOR Blocking Buffer plus 0.2% TX-100). […] Cells are washed two times with PBS plus 0.2% TX-100, and stained with 10 uM propidium iodide (PI) for 20-25 minutes for cell number measurement (1:500 dilution of Hoescht staining is also added for IN Cell imaging). The plates are scanned on the Acumen Explorer laser scanning instrument (TTP Labtech) using the 488nm laser for simultaneous excitation of the Alexa-488 and PI. […] The normalized phospho-S6 staining is calculated as the ratio of the integrated Alexa 488 intensity divided by the integrated PI intensity for the single concentration rapamycin control (7.5 nM) and DMSO columns. […] Inhibition of the pathway is defined based on the normalized phospho-S6 intensity in rapamycin treated cells. Active cells are defined as those with a normalized phospho-S6 staining above this threshold, and each treatment is reported as the % positive cells in the well, where thresholds are defined by selecting wells with the highest and lowest signal and differentiating between the % non-active and % active populations. In addition to the pathway specific phospho-S6 endpoint, the number of PI stained cells from the Acumen is recorded as a measure of cell viability. The primary screen was performed with a MEF cell line in a defined genetic background, Tsc2-/-, p53-/- cell line stably transfected with an empty vector control (Tsc2-/- MEF).
Potency is the fitted concentration of half-maximal effect.

Row | Structure (SMILES) | activity change, negative = inhibition | Potency
1 | Cc1ccc(Cl)cc1NC(=O)Cn1cc(S(=O)(=O)Cc2ccccc2Cl)c2ccccc21 | inactive: -1.55% | 
2 | CCC(=O)Nc1ccccc1-c1nc2ccccc2n(CC(=O)c2ccc(Br)cc2)c1=O | inactive: -0.209% | 
3 | Cc1cc(C)cc(OCC(=O)NCC2(N3CCOCC3)CCCCC2)c1 | inactive: -15.7% | 
4 | O=C(Cn1c(SCCOc2ccccc2Cl)nc2ccccc21)N1CCCCC1 | inactive: -2.28% | 
5 | CCCc1cc(=O)[nH]c(SCc2nc(-c3ccc(OC)cc3)no2)n1 | inactive: -22.2% | 
6 | COc1ccc(CC(=O)NCCc2csc(-c3cccc(F)c3)n2)cc1OC | inactive: -1.83% | 
7 | N#Cc1ccccc1Cn1c(=O)n(-c2ccc(F)c(Cl)c2)c(=O)c2sccc21 | inactive: -1.43% | 
8 | Cc1ccc(S(=O)(=O)Nc2cc3c(C(=O)OCc4ccccc4)c(C)oc3c3ccccc23)cc1 | inactive: -10.3% | 
9 | O=C(C1CCN(c2ncnc3c2nc2n3CCCCC2)CC1)N1CCN(c2ccccc2)CC1 | inactive: 1.54% | 
10 | CCOC(=O)c1ccccc1NC(=O)c1sc2ncn(CC)c(=O)c2c1C | inactive: -2.81% | 
11 | COc1ccc(F)cc1NC(=O)C1CCN(c2nc(-c3ccc(OC)c(OC)c3)no2)CC1 | inactive: -0.308% | 
12 | Cc1ccc(-n2nc(C)c3c(C)cc(=O)n(CC(=O)NCc4ccc(OC(C)C)cc4)c32)cc1 | inactive: -15.1% | 
13 | O=C(COc1ccc(F)cc1)Nc1cccc(OCc2cc(=O)n3ccccc3n2)c1 | inactive: -1.79% | 
14 | COc1ccc(Nc2ncc(C(=O)Nc3cc(C)ccc3OC)c3ccccc23)cc1 | inactive: -17.2% | 
15 | Cc1ccc2c(c1)c1c(c(=O)n(-c3ccccc3C)c(=O)n1Cc1ccccc1F)n2C | inactive: -0.264% | 
16 | COc1ccc(NC(=O)CCc2c(C)nc3c(-c4ccccc4)c(C)nn3c2C)cc1Cl | inactive: -7.62% | 
17 | Cn1c(C(=O)NCc2ccc(Cl)cc2)cc2c(=O)n(C)c3ccccc3c21 | inactive: 0.344% | 
18 | Cc1ccc(Cl)cc1NC(=O)Cn1c(=O)oc2cc(S(=O)(=O)N3CCCCCC3)ccc21 | inactive: -1.25% | 
19 | COc1ccc(-c2noc(C(C)NC(=O)c3ccco3)n2)cc1 (configuration not stated) | inactive: -17.6% | 
20 | Cc1ccc(NC(=O)c2ccc(=O)n(CC(=O)Nc3cc(C)cc(C)c3)n2)cc1 | inactive: -0.321% | 
21 | Cc1ccc(OCC(=O)Nc2c(Cl)ccc3nsnc23)cc1C | inactive: -0.655% | 
22 | Fc1ccc(-n2ncc3c(Nc4ccc(Oc5ccccc5)cc4)ncnc32)cc1 | inactive: 13.5% | 
23 | COc1cc(C(c2c(C)[nH][nH]c2=O)c2c(C)[nH][nH]c2=O)ccc1OC(=O)c1ccccc1F | inactive: -4.45% | 
24 | CCCN1CCN(CCCNC(=O)c2cnn(-c3ccc(C)cc3)c2-n2cccc2)CC1 | inactive: -1.81% | 

Row | Structure (SMILES) | activity change, negative = inhibition | Potency
25 | CC(=O)c1cccc(Nc2c3c(nc4nc(-c5cccs5)nn24)CCCC3)c1 | inactive: -5.67% | 
26 | CC(=O)Nc1ccc(NC(=O)CSc2nnc3c4cc(Br)ccc4n(C)c3n2)cc1 | inactive: 8.14% | 
27 | COC(=O)c1ccc2oc(=O)c(S(=O)(=O)c3ccc(C)cc3)cc2c1 | inactive: -7.83% | 
28 | CCCC(=O)Nc1cccc(-c2nc3cc(C)c(C)cc3o2)c1C | inactive: 13.9% | 
29 | Cc1ccc(CNC(=O)C2CCN(c3nc4ccc(C)cc4[nH]3)CC2)cc1 | inactive: 0% | 
30 | Cc1ccc2c(c1)c1c(c(=O)n(-c3cccc(Cl)c3)c(=O)n1C)n2C | inactive: -1.66% | 
31 | CCSc1ncc(Cl)c(C(=O)Nc2sc(C(C)=O)c(C)c2C(=O)OC)n1 | inactive: 4.44% | 
32 | COc1cc(OC)c(NC(=O)c2cnc(N3CCCC3)nc2C)cc1Cl | inactive: 13.7% | 
33 | COc1ccc(CNC(=O)c2ccc(Sc3ccc(Cl)cc3)c(NC(C)=O)c2)c(OC)c1 | inactive: 8.97% | 
34 | CCOC(=O)c1c(NC(=O)c2cc3nc(-c4ccc(OC)cc4)cc(C(F)(F)F)n3n2)sc(C)c1C | inactive: -4.6% | 
35 | O=C1CN(C(=O)COc2ccc(Cl)cc2Cl)C(c2ccc(F)cc2)c2cc(F)ccc2N1 (configuration not stated) | inactive: -5.1% | 
36 | COc1ccc(C(=O)c2oc3ccccc3c2NC(=O)c2nc(SC)ncc2Cl)cc1Cl | inactive: -1.28% | 
37 | CCOC(=O)N1CCc2c(sc(NCc3cccs3)c2C(=O)Nc2cc(OC)ccc2OC)C1 | inactive: 2.45% | 
38 | CCOC(=O)c1nnn(C(CC)C(=O)Nc2c(C)cccc2C)c1C(=O)OCC (configuration not stated) | inactive: 3.85% | 
39 | CC(C)c1ccc(Nc2cc(C(=O)NCc3cccs3)c3ccccc3n2)cc1 | inactive: -18.5% | 
40 | CCN(CC)C(=O)CSc1nnc2[nH]c(=O)cc(C)n12 | inactive: -4.31% | 
41 | Cc1ccc(NC(=O)N2CCN(c3nnc(C)c4c(C)n(-c5ccccc5)nc34)CC2)c(Cl)c1 | inactive: -11.7% | 
42 | CCOc1ccc(-c2cccc(NS(=O)(=O)c3ccc(Cl)s3)c2)nn1 | inactive: -1.75% | 
43 | CCc1ccccc1NC(=O)CCCN1C(=O)COc2ccc(C)cc21 | inactive: -2.23% | 
44 | CCNc1nc(Oc2ccc(OCC(=O)OC)nn2)nc(N2CCOCC2)n1 | inactive: -11.5% | 
45 | CCOc1ccc2nc(N3CCCC(C(=O)NCc4ccc(OC)cc4)C3)sc2c1 (configuration not stated) | inactive: -0.41% | 
46 | Cc1cccc(OCC(=O)N(Cc2cccc(Cl)c2)Cc2ccco2)c1C | inactive: -0.709% | 
47 | CC(C)S(=O)(=O)c1oc(-c2ccc(F)cc2)nc1S(=O)(=O)c1ccc(F)cc1 |  | active: 521 nM
